Data on 42 molecules can be found in US8067379B2, “Sulfur compounds as inhibitors of hepatitis C virus NS3 serine protease” (Schering Corporation, priority 2004, dated 2011).

pKi: −log10 of the molar value. A value given as a limit tells only on which side of the number the result lay.

One test deals with Recombinant heterodimeric HCV NS3/NS4A protease (strain 1a) (Hepatitis C virus genotype 1a, UniProt P27958). Description: Spectrophotometric assay for HCV serine protease inhibitory activity (chromogenic ester substrates). Format: biochemical. Particulars: Table 3, sulfide compounds; HCV serine protease; read-out: Ki* range.
Take `C=CCNC(=O)C(=O)C(CC1CC1)NC(=O)[C@@H]1[C@@H]2[C@H](CN1C(=O)[C@@H](NC(=O)NC1(CSCC)CCCCC1)C(C)(C)C)C2(C)C` (stereo partly drawn) [Compound 119]: the pKi was 6.60 to 7.12.

The test is the same for the next values; noted with them: Table 3, sulfone compounds, rows without Prep. Ex. number; read-out: Ki* (numeric value, unlabelled structures at end of sulfone table, column without head).
For `CC(C)(C)OC(=O)CCNC(=O)C(=O)C(CC1CC1)NC(=O)[C@@H]1[C@@H]2[C@H](CN1C(=O)[C@@H](NC(=O)NC1(CS(=O)(=O)C(C)(C)C)CCCCC1)C1(C)CCCCC1)C2(C)C` (stereo partly drawn), the negative-log Ki (pKi) was 7.77. On to `CCCCC(NC(=O)[C@@H]1[C@@H]2[C@H](CN1C(=O)[C@@H](NC(=O)NC1(CS(=O)(=O)C(C)(C)C)CCCCC1)C(C)(C)C)C2(C)C)C(=O)C(=O)NCCCl` (stereo partly drawn), for which the pKi was 7.57.

Staying with this test, now noted: Table 3, sulfone compounds; HCV serine protease; read-out: Ki* range.
`CC(C)CCS(=O)(=O)CC1(NC(=O)N[C@H](C(=O)N2C[C@H](OC(C)(C)C)C[C@H]2C(=O)NC(CC2CCC2)C(=O)C(N)=O)C2CCCCC2)CCCCC1` (stereo partly drawn) [Compound 309]: the pKi is > 7.12. For `CC(C)[C@@H](CS(=O)(=O)c1ccccn1)NC(=O)N[C@H](C(=O)N1C[C@H]2[C@@H]([C@H]1C(=O)NC(CC1CC1)C(=O)C(N)=O)C2(C)C)C(C)(C)C` (stereo partly drawn) [Compound 231], the pKi is > 7.12. Turning to `C#CCCNC(=O)C(=O)C(CCC#C)NC(=O)[C@@H]1[C@@H]2[C@H](CN1C(=O)[C@@H](NC(=O)NC1(CS(=O)(=O)c3ccccc3)CCCCC1)C(C)(C)C)C2(C)C` (stereo partly drawn) [Compound 182], the pKi was > 7.12.

As for `C=CCNC(=O)C(=O)C(CC1CC1)NC(=O)[C@@H]1[C@@H]2[C@H](CN1C(=O)[C@@H](NC(=O)NC1(CS(=O)(=O)CC)CCCCC1)C(C)(C)C)C2(C)C` (stereo partly drawn) [Compound 204], the pKi is > 7.12. For the molecule `C#CCCC(NC(=O)[C@@H]1[C@@H]2[C@H](CN1C(=O)[C@@H](NC(=O)NC1(CS(=O)(=O)C(C)(C)C)CCCCC1)C(C)(C)C)C2(C)C)C(=O)C(=O)NC` (stereo partly drawn) [Compound 253], the pKi was > 7.12. `C#CCCC(NC(=O)[C@@H]1[C@@H]2[C@H](CN1C(=O)[C@@H](NC(=O)NC1(CS(=O)(=O)C(C)(C)C)CCCCC1)C(C)(C)C)C2(C)C)C(=O)C(=O)NCC=C` (stereo partly drawn) [Compound 210]: the pKi is > 7.12. Consider `C=CCNC(=O)C(=O)C(CCCC)NC(=O)[C@@H]1[C@@H]2[C@H](CN1C(=O)[C@@H](NC(=O)NC1(CS(=O)(=O)C(C)(C)C)CCCCC1)C(C)(C)C)C2(C)C` (stereo partly drawn) [Compound 275], for which the negative-log Ki (pKi) was > 7.12. In the case of `CC(C)(C)[C@H](NC(=O)NC1(CS(C)(=O)=O)CCCCC1)C(=O)N1C[C@H]2[C@@H]([C@H]1C(=O)NC(CC1CCC1)C(=O)C(N)=O)C2(C)C` (stereo partly drawn) [Compound 212], the pKi was > 7.12. Consider `C#CCCC(NC(=O)[C@@H]1[C@@H]2[C@H](CN1C(=O)[C@@H](NC(=O)NC1(CS(=O)(=O)C(C)(C)C)CCCCC1)C(C)(C)C)C2(C)C)C(=O)C(N)=O` (stereo partly drawn) [Compound 266], for which the pKi was > 7.12.

Still in this test, the particulars now being: Table 3A; class symbols; read-out: Ki* Range.
Turning to `C=CCNC(=O)C(=O)C(CC1CC1)NC(=O)[C@@H]1C[C@@H](C(F)(F)F)CN1C(=O)[C@@H](NC(=O)NC1(CS(=O)(=O)C(C)(C)C)CCCCC1)C1(C)CCCCC1` (stereo partly drawn) [Compound 460], the pKi was > 7.12. Still for that read-out and setting: in the case of `C=CCNC(=O)C(=O)C(CC1CC1)NC(=O)[C@@H]1[C@@H]2[C@H](CN1C(=O)[C@@H](NC(=O)NC1(CS(=O)(=O)CC(F)(F)F)CCCCC1)C(C)(C)C)C2(C)C` (stereo partly drawn) [Compound 563] it was > 7.12; in that of `C=CCNC(=O)C(=O)C(CCC1CC1)NC(=O)[C@@H]1[C@@H]2[C@H](CN1C(=O)[C@@H](NC(=O)NC1(CS(=O)(=O)C(C)(C)C)CCCCC1)C(C)(C)C)C2(C)C` (stereo partly drawn) [Compound 432], > 7.12. For `C=CCNC(=O)C(=O)[C@H](CCCC)NC(=O)[C@@H]1[C@@H]2[C@H](CN1C(=O)[C@@H](NC(=O)NC1(CS(=O)(=O)C(C)(C)COC)CCCCC1)C(C)(C)C)C2(C)C` [Compound 765], the pKi was > 7.12. `C=CCNC(=O)C(=O)[C@H](CC1CC1)NC(=O)[C@@H]1[C@@H]2[C@H](CN1C(=O)[C@@H](NC(=O)NC1(CS(=O)(=O)C(C)(C)CO)CCCCC1)C1(C)CCCCC1)C2(C)C` [Compound 745]: the pKi is > 7.12.

On to `C=CCNC(=O)C(=O)[C@H](CCC)NC(=O)[C@@H]1[C@@H]2[C@H](CN1C(=O)[C@@H](NC(=O)NC1([C@@H]3CCCS3(=O)=O)CCCCC1)C(C)(C)C)C2(Cl)Cl` [Compound 826], for which the pKi was > 7.12. On the same count and under the same terms, in the case of `CC1(C)C[C@H]2[C@H](CN(C(=O)[C@@H](NC(=O)NC3(CS(=O)(=O)C(C)(C)C)CCCCC3)C3CCCCC3)[C@@H]2C(=O)NC(CC2CCC2)C(=O)C(=O)NC2CC2)O1` (stereo partly drawn) [Compound 562] it was 6.60 to 7.12.

On to `CNC(=O)C(=O)[C@H](CC1CC1)NC(=O)[C@@H]1[C@@H]2[C@H](CN1C(=O)[C@@H](NC(=O)NC1([C@H]3CCCS3(=O)=O)CCCCC1)C1(C)CCCCC1)C2(C)C` [Compound 883-ex], for which the pKi is > 7.12. For `C=CCNC(=O)C(=O)C(CCC(F)(F)F)NC(=O)[C@@H]1[C@@H]2[C@H](CN1C(=O)[C@@H](NC(=O)NC1(CS(=O)(=O)C(C)(C)C)CCCCC1)C1(C)CCCCC1)C2(C)C` (stereo partly drawn) [Compound 504], the pKi was > 7.12. Same read-out and setting: in the case of `C=CCNC(=O)C(=O)[C@H](CC1CC1)NC(=O)[C@@H]1[C@@H]2[C@H](CN1C(=O)[C@@H](NC(=O)NC1(CS(=O)(=O)C(C)(C)COC)CCCCC1)C(C)(C)C)C2(C)C` [Compound 752] it was > 7.12; in that of `C=CCNC(=O)C(=O)C(CC1CC1)NC(=O)[C@@H]1[C@@H]2[C@H](CN1C(=O)[C@@H](NC(=O)NC1(CS(=O)(=O)C(C)(C)C)C3CCCC31)C(C)(C)C)C2(C)C` (stereo partly drawn) [Compound 447], > 7.12; in that of `CCCC[C@H](NC(=O)[C@@H]1[C@@H]2[C@H](CN1C(=O)[C@@H](NC(=O)NC1([C@@H]3CC(C)(C)CCS3(=O)=O)CCCCC1)C(C)(C)C)C2(C)C)C(=O)C(=O)NC1CC1` [Compound 859], > 7.12. The same measure, in the same setting: for `CCCC[C@H](NC(=O)[C@@H]1[C@@H]2[C@H](CN1C(=O)[C@@H](NC(=O)NC1([C@H]3CCCS3(=O)=O)CCCCC1)C(C)(C)C)C2(Cl)Cl)C(=O)C(=O)NC1CC1` [Compound 819] the value was > 7.12; for `CC(C)(C)[C@H](NC(=O)NC1(CS(=O)(=O)c2ccccc2)CCCCC1)C(=O)N1C[C@H]2[C@@H]([C@H]1C(=O)NC(CC1CC1)C(=O)C(=O)NC1CC1)C2(C)C` (stereo partly drawn) [Compound 482], 6.60 to 7.12.

As to `CCNC(=O)C(=O)[C@H](CCC1CC1)NC(=O)[C@@H]1[C@@H]2[C@H](CN1C(=O)[C@@H](NC(=O)NC1([C@H]3OCCS3(=O)=O)CCCCC1)C1(C)CCCCC1)C2(C)C` [Compound 883-dj], the pKi was > 7.12. Still for that read-out and setting: for `CCCC(NC(=O)[C@@H]1[C@@H]2[C@H](CN1C(=O)[C@@H](NC(=O)NC1(CS(=O)(=O)C(C)(C)COC)CCCCC1)C1(C)CCCCC1)C2(C)C)C(=O)C(=O)NC1CC1` (stereo partly drawn) [Compound 668] the value was > 7.12; for `CCCC(NC(=O)[C@@H]1[C@@H]2[C@H](CN1C(=O)[C@@H](NC(=O)NC1(CS(=O)(=O)C(C)(C)C)CCCCC1)C1(C)CCCCC1)C2(C)C)C(=O)C(=O)NC(C)COC` (stereo partly drawn) [Compound 533], 6.60 to 7.12. The same measure, in the same setting: for `CCCNC(=O)C(=O)C(CCC1CC1)NC(=O)[C@@H]1[C@@H]2[C@H](CN1C(=O)[C@@H](NC(=O)NC1(CS(=O)(=O)C(C)(C)C)CCCCC1)C(C)(C)C)C2(C)C` (stereo partly drawn) [Compound 502] the value was > 7.12; for `CCS(=O)(=O)CC1(NC(=O)N[C@H](C(=O)N2C[C@H]3[C@@H]([C@H]2C(=O)NC(CC2CC2)C(=O)C(=O)NC2CC2)C3(C)C)C2(C)CCCCC2)CCCCC1` (stereo partly drawn) [Compound 529], > 7.12; for `C=CCNC(=O)C(=O)[C@H](CCC1CC1)NC(=O)[C@@H]1[C@@H]2[C@H](CN1C(=O)[C@@H](NC(=O)NC1(C3CCCCS3(=O)=O)CCCCC1)C1(C)CCCCC1)C2(C)C` (stereo partly drawn) [Compound 883-x], > 7.12. As for `C=CCNC(=O)C(=O)C(CC1CC1)NC(=O)[C@@H]1[C@@H]2[C@H](CN1C(=O)[C@@H](NC(=O)NC1(C3CCCS3(=O)=O)CCCCC1)C(C)(C)C)C2(C)C` (stereo partly drawn) [Compound 616], the pKi is > 7.12. For the molecule `C=CCNC(=O)C(=O)C(CCC1CC1)NC(=O)[C@@H]1[C@@H]2[C@H](CN1C(=O)[C@@H](NC(=O)NC1(C3CCCS3(=O)=O)CCCCC1)C1(C)CCCCC1)C2(C)C` (stereo partly drawn) [Compound 623], the pKi is > 7.12. Turning to `C=CCNC(=O)C(=O)[C@@H](CCC1CC1)NC(=O)[C@@H]1[C@@H]2[C@H](CN1C(=O)[C@@H](NC(=O)NC1(CS(=O)(=O)C(C)(C)C)CCCCC1)C1(C)CCCCC1)C2(C)C` [Compound 883-a], the pKi was 6.60 to 7.12.

In the case of `C=CCNC(=O)C(=O)C(CC1CC1)NC(=O)[C@@H]1[C@@H]2[C@H](CN1C(=O)[C@@H](NC(=O)N[C@@]1(CS(=O)(=O)C(C)(C)C)C[C@H]3C[C@H]3C1)C1(C)CCCCC1)C2(C)C` (stereo partly drawn) [Compound 466], the pKi was > 7.12. As to `C[C@@H](C1(NC(=O)N[C@H](C(=O)N2C[C@H]3[C@@H]([C@H]2C(=O)N[C@@H](CCC2CC2)C(=O)C(=O)NC2CC2)C3(C)C)C2(C)CCCCC2)CCCCC1)S(=O)(=O)C(C)(C)C` [Compound 883-em], the pKi is > 7.12. For the molecule `CC1([C@H](NC(=O)NC2(CS(=O)(=O)C3CCCC3)CCCCC2)C(=O)N2C[C@H]3[C@@H]([C@H]2C(=O)NC(CC2CC2)C(=O)C(=O)NC2CC2)C3(C)C)CCCCC1` (stereo partly drawn) [Compound 545], the pKi was > 7.12.

Still in this test, the particulars now being: Table 4A; read-out: Ki* Range.
In the case of `C=CCNC(=O)C(=O)C(CC1CCC1)NC(=O)[C@@H]1[C@@H]2[C@H](CN1C(=O)[C@@H](NC(=O)N[C@H]([C@H]1CCN(Cc3ccc(OC)cc3)S1(=O)=O)C(C)(C)C)C1(C)CCCCC1)C2(C)C` (stereo partly drawn) [Compound 1117], the pKi was < 6.60.

The test is the same for the next values; noted with them: Table 5; read-out: Ki*.
As for `C=CCNC(=O)C(=O)C(CCCC)NC(=O)[C@@H]1C2[C@H](CN1C(=O)[C@@H](NC(=O)NC1(CS(=O)(=O)C(C)(C)C)CCCCC1)C(C)(C)C)C2(C)C` (stereo partly drawn), the pKi is 7.96. Turning to `CCCC[C@H](NC(=O)[C@@H]1C2[C@H](CN1C(=O)[C@@H](NC(=O)NC1(CS(=O)(=O)C(C)(C)C)CCCCC1)C1(C)CCCCC1)C2(C)C)C(=O)C(=O)NC1CC1` (stereo partly drawn), the pKi is 8.30. For the molecule `C=CCNC(=O)C(=O)C(CC1CC1)NC(=O)[C@@H]1C2[C@H](CN1C(=O)[C@@H](NC(=O)NC1(CS(=O)(=O)C(C)(C)CC)CCCCC1)C1(C)CCCCC1)C2(C)C` (stereo partly drawn), the negative logarithm of the Ki (pKi) is 8.05.
